{
  "source": "paper PMC12040169",
  "about": "(PLOS Biology, 2025)",
  "note": "This is one part of the list.",
  "data": [
    {"test_system": "T1, C. trachomatis L2/434/Bu expressing GFP (CTL2-GFP)", "T1 construct": "L2/434/Bu GFP intracellular growth in HeLa cells", "set-up": "species or system HeLa; C. trachomatis total inclusion area by high-content imaging, normalised to DMSO", "conditions": "total inclusion area; 28.5 h, 10 µM; inhibitor", "method_in_brief": "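Imaging read-out: GFP inclusions and Hoechst nuclei captured by high-content imaging after fixation. Inclusion area/number = chlamydial growth; nuclei count = host cell viability. MIC calculated per earlier method.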", "values": [
      {"smiles": "CN(CC(F)(F)F)C(=O)CCc1nc(-c2cccs2)no1", "note": "[CBK282215]", "% of control remaining": 91.3466},
      {"smiles": "CCOc1ccc(CN(C)C(C)C(=O)Nc2cc(C)no2)cc1", "note": "(centres unmarked) [CBK305607]", "% of control remaining": 69.1218},
      {"smiles": "Cn1cncc1CN1CCNC(=O)C1c1ccccc1C(F)(F)F", "note": "(centres unmarked) [CBK305495]", "% of control remaining": 38.9371},
      {"smiles": "O=C(c1cc[nH]c1)N1CCC2(CCN(Cc3ccccc3)CC2)C1", "note": "[CBK136756]", "% of control remaining": 95.7087},
      {"smiles": "CC(C)[C@@H](N)Cn1nnc2ccccc21", "note": "[CBK284323]", "% of control remaining": 88.9454},
      {"smiles": "Cc1cc(OCC(=O)Nc2ccc(S(=O)(=O)Nc3onc(C)c3C)cc2)cc(C)c1Cl", "note": "[CBK263491]", "% of control remaining": 17.1956},
      {"smiles": "O=C(O)CN1CCN(c2ncnc3sc4c(c23)CCCC4)CC1", "note": "[CBK286836]", "% of control remaining": 130.593},
      {"smiles": "Cc1n[nH]cc1C(=O)NC[C@H]1CC[C@H](c2cc(C(=O)NC(C)C)c3ccccc3n2)CC1", "note": "[CBK285862]", "% of control remaining": 117.029},
      {"smiles": "O=S(=O)(NC[C@H]1C[C@@H]2CC[N@]1C[C@@H]2CN1CCOCC1)c1cccs1", "note": "[CBK288759]", "% of control remaining": 102.351},
      {"smiles": "CC(=O)N1CCC(C(=O)NC(=O)NCCOc2ccccc2Cl)CC1", "note": "[CBK034842]", "% of control remaining": 86.6795},
      {"smiles": "COc1ccnc(N2CCN(Cc3nnnn3C3CC3)CC2)n1", "note": "[CBK305808]", "% of control remaining": 42.0434},
      {"smiles": "Cc1ccc2nc3c(cc2c1)CN(Cc1ccco1)C(=O)CO3", "note": "[CBK283594]", "% of control remaining": 70.2993},
      {"smiles": "O=C(COC(=O)CN1C(=O)C(=O)c2ccccc21)Nc1cccc2ccccc12", "note": "[CBK263915]", "% of control remaining": 100.564},
      {"smiles": "CC1CCCCN1C(=O)c1cccc(Cn2cc(Br)c([N+](=O)[O-])n2)c1", "note": "(centres unmarked) [CBK058788]", "% of control remaining": 75.7223},
      {"smiles": "Cc1nc(O)cc(C2CCCN(C(=O)c3scc4c3CCCC4)C2)n1", "note": "(centres unmarked) [CBK306969]", "% of control remaining": 71.1188},
      {"smiles": "CC(=O)N1CCc2sccc2C1c1ccc(NC(=O)C2CC2)cc1", "note": "(centres unmarked) [CBK282907]", "% of control remaining": 92.7726},
      {"smiles": "O=C(NC1CC1)[C@H]1CN2CCC1C[C@@H]2Cn1cc(-c2cccc(O)c2)nn1", "note": "(some centres unmarked) [CBK288738]", "% of control remaining": 121.174},
      {"smiles": "O=C(CCCN1C(=O)c2cccc3cccc(c23)C1=O)NCc1cccnc1", "note": "[CBK262190]", "% of control remaining": 99.2377},
      {"smiles": "CN1CCN(C(=O)c2ccc(-c3ccc4c(c3)OCO4)nc2NCc2cccnc2)CC1", "note": "[CBK076110]", "% of control remaining": 96.1485},
      {"smiles": "COc1ccc(/C=N/NC(=O)CSc2nnc(C)n2-c2ccccc2)cc1", "note": "[CBK262812]", "% of control remaining": 105.268},
      {"smiles": "COC(=O)Nc1nc2cc3cn[nH]c3cc2[nH]1", "note": "[CBK016129]", "% of control remaining": 104.785},
      {"smiles": "COc1ccccc1C(C)N(C)CCC(=O)Nc1cc(C)on1", "note": "(centres unmarked) [CBK305098]", "% of control remaining": 97.2387},
      {"smiles": "COc1ccc(CC(=O)NC(CCSC)c2nnc3ccccn23)cc1", "note": "(centres unmarked) [CBK306077]", "% of control remaining": 58.752},
      {"smiles": "N=C(N)SCCCCCSC(=N)N", "note": "[CBK278314B]", "% of control remaining": 93.7552},
      {"smiles": "Cn1c(=O)n(CC(=O)N2CCC(C(=O)NC(c3ccccc3)c3ccccn3)CC2)c2ccccc21", "note": "(centres unmarked) [CBK060494]", "% of control remaining": 108.64},
      {"smiles": "COc1ccc(CNC(=O)[C@H]2C=CCN2C(=O)c2ccco2)cc1", "note": "[CBK284321]", "% of control remaining": 103.81},
      {"smiles": "Fc1ccccc1-c1cn2ccnc2c(N2CCOCC2)n1", "note": "[CBK036584]", "% of control remaining": 89.8799},
      {"smiles": "CC1CN(S(=O)(=O)c2ccc(NC(=O)C3CC(=O)Nc4cc(F)ccc43)cc2)CC(C)O1", "note": "(centres unmarked) [CBK297933]", "% of control remaining": 81.2967},
      {"smiles": "CCOc1cc(/C=C2\\S/C(=N/c3ccc(S(N)(=O)=O)cc3)NC2=O)c(Br)cc1O", "note": "[CBK265622]", "% of control remaining": 88.2249},
      {"smiles": "CC(NC(=O)c1cn(C)c(=O)c2ccccc12)c1ccccn1", "note": "(centres unmarked) [CBK281886]", "% of control remaining": 96.0745},
      {"smiles": "Cc1cc(C)nc(NC(=O)OCCN2CCN(C)CC2)c1", "note": "[CBK138235]", "% of control remaining": 93.6559},
      {"smiles": "Cc1cc(=O)oc2cc(NC(=S)NNC(=O)c3ccc(Cl)s3)ccc12", "note": "[CBK266828]", "% of control remaining": 94.865},
      {"smiles": "Cc1cccc(C)c1OCC(=O)Nc1ccc(S(=O)(=O)N2CCOCC2)cc1", "note": "[CBK266967]", "% of control remaining": 111.926},
      {"smiles": "N#Cc1ccccc1CSc1nc2ccc(NC(=O)c3ccc([N+](=O)[O-])cc3)cc2s1", "note": "[CBK265868]", "% of control remaining": 117.011},
      {"smiles": "CCOC(=O)C(C)NC(=O)c1cc2ccc(F)cc2[nH]1", "note": "(centres unmarked) [CBK283214]", "% of control remaining": 60.8365},
      {"smiles": "O=C(CN1C(=O)N2CCCN=C2c2ccccc21)N1CCCCC1", "note": "[CBK284395]", "% of control remaining": 90.2505},
      {"smiles": "Clc1cnc2nc(NCC3CCCCC3)sc2c1", "note": "[CBK067087]", "% of control remaining": 30.0619},
      {"smiles": "O=C(CN1CCOCC1)NCCNc1c(Cl)c(Cl)c(Cl)c(Cl)c1Cl", "note": "[CBK266851]", "% of control remaining": 97.7513},
      {"smiles": "CC(C)N(C)CC(=O)N(C)c1nc2c(s1)CC(c1ccccc1)CC2", "note": "(centres unmarked) [CBK305535]", "% of control remaining": 48.8089},
      {"smiles": "COC(=O)CCc1ccc(S(=O)(=O)N2CCCN(Cc3cc(F)c(F)c(F)c3)CC2)cc1", "note": "[CBK062998]", "% of control remaining": 97.1131},
      {"smiles": "Cc1c(F)cccc1CN(CC(C)(C)CN)C(=O)Nc1ccc(C(F)(F)F)cc1", "note": "[CBK002417C]", "% of control remaining": 62.3732},
      {"smiles": "Cc1nc2cc(C(=O)N3CCC(c4ccccc4)C3)ccc2n1C", "note": "(centres unmarked) [CBK281841]", "% of control remaining": 104.525},
      {"smiles": "c1ccc2c(c1)OCC(COc1cncc(N3CCNCC3)n1)O2", "note": "(centres unmarked) [CBK172357G]", "% of control remaining": 37.1173},
      {"smiles": "Cc1ccc(S(=O)(=O)c2ccc(C)c(S(N)(=O)=O)c2)cc1S(N)(=O)=O", "note": "[CBK261664]", "% of control remaining": 104.217},
      {"smiles": "O=C(NC1CC2(CCCC2)Oc2ccccc21)C1CCOC1", "note": "(centres unmarked) [CBK283802]", "% of control remaining": 104.915},
      {"smiles": "CN(C)CCCC(=O)Nc1cccc2[nH]ccc12", "note": "[CBK159660]", "% of control remaining": 90.24},
      {"smiles": "C=CCNC(=O)N[C@H]1[C@H](O)[C@@H](N(CC)CC)[C@@H]2OC[C@H]1O2", "note": "[CBK288817]", "% of control remaining": 120.597},
      {"smiles": "COc1cc(C(=O)N2CCC3(CC2)NC(=O)c2cc(Br)ccc2O3)ccc1C", "note": "[CBK149464]", "% of control remaining": 88.7587},
      {"smiles": "CC(=O)NCCc1c(C(=O)O)[nH]c2ccc(OCc3ccccc3)cc12", "note": "[CBK260945]", "% of control remaining": 104.775},
      {"smiles": "CC(C)NC(=O)C1(Cc2ccc(-c3ccccc3)cc2)CCN(C(=O)C2CCCC2)CC1", "note": "[CBK285751]", "% of control remaining": 93.0642}
    ]}
  ]
}
